Hit rate of the full screen: of about 48,000 compounds, about 450 (0.94%) were called active. Roughly 19% stayed inconclusive and do not appear here. Calls follow the shape of the dose curve; as a rule, active = well fitted inhibition curve with a large enough effect; inconclusive = small, poorly fitted or top-dose-only effect; inactive = no such curve, though single readings can be large or run the other way. This is one part of the list.
Assay: Primary qHTS for Identification of Small Molecule Inhibitors of Huntingtin Promoter Activity; also: nearly all actives have a fitted effect of over 50% in size
Conditions: HEK293 HTT promoter firefly luciferase reporter (activity 0% = vehicle and -100% = no light), 24 h; series mostly up to 57.5 µM; activity change, negative = inhibition: at the top concentration
How it was run: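 Quantitative HTS used concentration series of up to 57.5 uM final on HEK293 luciferase reporter cells, 24 h at 37 degrees C. Readout was Dual-Glo firefly luminescence.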

Activity change, negative = inhibition, inactive:
COc1ccc(NC(=O)CSc2nc3ccccc3[nH]2)cc1 2.76%
Cc1ccc(C)c(N2CCN(C(=O)Cn3c(=O)c4cccn4c4ccc(F)cc43)CC2)c1 -4.48%
CCCCC(CC)CNC(=O)CCCc1nnc2n(CCC)c(=O)c3sccc3n12 (stereo not drawn) -6.62%
Cc1ccc(NC(=O)CSCn2nnc3c(=O)[nH]c(Cc4ccc(F)cc4)nc32)c(C)c1 -16%
COc1cc2c(=O)c(C(=O)c3ccc(C)c(C)c3)cn(Cc3ccccc3)c2cc1OC -6.79%
COc1ccc(-c2cc3nc(C)c(CCC(=O)N4CCN(c5ccccc5)CC4)c(C)n3n2)c(OC)c1 -10%
Cc1cc(C)c2nc(NC(=O)c3ccc(S(=O)(=O)N4CCCC4)cc3)sc2c1 -19.9%
CCOc1cc(C2C(C(=O)OC)=C(C)NC3=C2C(=O)c2ccccc23)c(Br)cc1OC (stereo not drawn) -33.7%
Cc1cn2cc(C(=O)N(C)CCO)cc(N[C@@H]3CCOc4cccc(C)c43)c2n1 -12.1%
Cc1coc2c1C(=O)C(=O)c1c-2ccc2c1CCCC2(C)C 5.27%
CCOCCCNC(=O)Cn1nc(C)n2c(cc3cc(C)ccc32)c1=O 2%
O=C(COc1ccccc1Cl)Nc1nc2c(s1)CCCC2 26%
Fc1ccc(CNCCCSc2nnnn2-c2ccccc2)cc1 -15.5%
COc1ccc(Cn2c(C(=O)O)c(CNCc3ccc(OC)cc3OC)c3ccc(C)cc32)cc1 -29.7%
COc1ccc(NC(=O)CSCc2cc(=O)c3cc(C)ccc3[nH]2)cc1 -6.3%
CC(=O)OCC(=O)[C@@]1(O)[C@H](C)C[C@H]2[C@@H]3CCC4=CC(=O)C=C[C@]4(C)[C@@]3(F)[C@@H](O)C[C@@]21C -3.89%
COc1ncnc(NS(=O)(=O)c2ccc(N)cc2)c1OC
CCOc1ccc(CNC(=O)c2ccc3c(Cl)c4c(nc3c2)CCCC4)cc1 3.45%
COc1cc(Cl)c(C)cc1NC(=O)CC1Oc2ccccc2NC1=O (stereo not drawn) -23.2%
O=C(Oc1ccccc1)c1ccccc1O -0.582%
COc1ccc(C(=O)Nc2ccc(-c3nc4ncccc4o3)cc2C)cc1Br 13.6%
CCn1c(=O)c2cc(C(=O)Nc3cccc(C(F)(F)F)c3)sc2c2ccccc21 -2.23%
CCNC(=O)CCCN1C(=O)CCn2nc(-c3cccn3C)cc21 -12.4%
O=S(=O)(c1ccc(C2CCCCC2)cc1)N1CCN(c2cc(Cl)ccc2Cl)CC1 -1.31%
CCC(Sc1nc2nccnc2c(=O)n1Cc1ccccc1Cl)C(=O)NC1CCCCC1 (stereo not drawn) -17.9%
Cc1ccc(CNC(=O)CSCc2ccccc2C)cc1 8.86%
Cc1ccc2nc(NCc3ccccc3)c3nncn3c2c1 -4.06%
CCn1cc(C(=O)NCCc2ccc(Cl)cc2)c(=O)c2cc(S(=O)(=O)N(C)C3CCCCC3)ccc21 -1.43%
COc1ccc(CCNC(=O)c2cc3c(=O)n4cccc(C)c4nc3n2C)cc1 2.13%
Cc1ccc(-c2csc(-c3c(N)c(C(=O)c4ccc5c(c4)OCO5)n4ccccc34)n2)cc1C -23.6%
COc1ccc(C(=O)c2ccccc2)c(O)c1 22.2%
COc1ccc(NC(=O)CC2Oc3ccc(C)cc3NC2=O)cc1Cl (stereo not drawn) -26.1%
COc1c(N2C[C@@H]3CCCN[C@@H]3C2)c(F)cc2c(=O)c(C(=O)O)cn(C3CC3)c12 9.73%
Cc1cc(C)cc(-n2ccn(CC(=O)NCCc3ccccc3)c(=O)c2=O)c1 -4.21%
COc1cc2c(cc1OC)C(COc1ccc3c(C)cc(=O)oc3c1)N(C(=O)Cc1ccc(F)cc1)CC2 (stereo not drawn) -17.2%
CCOc1ccc(N(CC(=O)NCc2ccc(OC)cc2)S(=O)(=O)c2c(C)[nH]c(=O)[nH]c2=O)cc1 4.96%
COc1cccc(C(=O)N(Cc2cccc(F)c2)C2CCS(=O)(=O)C2)c1 (stereo not drawn) -7.79%
COc1ccc(Cn2ccnc2SCC(=O)Nc2ccc3c(c2)OCCO3)cc1 11.4%
Cc1ccc2c(c1)N(CC(=O)Nc1ccccc1C(F)(F)F)C(=O)c1cccnc1O2 -18%
Cc1c(Cl)cccc1NC(=O)c1oc2ccc(S(=O)(=O)N3CCCCCC3)cc2c1C -18.4%
COc1cccc(OC)c1C(=O)Nc1ccc(-c2nc3ncccc3o2)cc1 -7.63%
COc1cccc(CN(C(=O)COc2ccc(Cl)c(C)c2)C2CCS(=O)(=O)C2)c1 (stereo not drawn) -20.7%
COc1ccc(C(=O)CC(=O)c2ccc(C(C)(C)C)cc2)cc1
Cc1ccc(Sc2ccc(N3CCC(C(=O)Nc4cc(C)cc(C)c4)CC3)nn2)cc1 1.53%
Cc1ccc(C2CC(=O)n3nc(-c4ccc(Cl)cc4)nc3S2)cc1 (stereo not drawn) 7.52%
O=C(Cn1c(=O)n(-c2ccccc2)c(=O)c2c3c(sc21)CCC3)c1ccc(F)cc1 -10%
Cc1c(Cl)cccc1-n1ncc(C(=O)NCCN2CCN(C)CC2)c1C1CCN(C(=O)OC(C)(C)C)CC1 -3.84%
O=C(NCc1ccccc1)c1ccc2c(c1)N(Cc1ccccc1F)C(=O)c1ccccc1S2=O (stereo not drawn) -19.4%
CCc1ccc(NC(=O)CSc2nc3c([nH]c4ccccc43)c(=O)n2-c2ccc(C)cc2)cc1 -26.1%
Cc1ccc(CNC(=O)CCS(=O)(=O)c2cc3c4c(c2)CCN4C(=O)CC3)cc1 -7.96%
CCN(CC)c1cc(C)c2cc(NC(=O)c3ccc(OC)c(OC)c3)ccc2n1 -6.68%
CCOC(=O)c1scc(-c2ccccc2)c1S(=O)(=O)N1CCN(c2ccc(Cl)cc2)CC1 -23.1%
COc1ccccc1C(=O)Nc1c(C(=O)Nc2cc(Cl)ccc2C)sc2nc(C)cc(C)c12 -9.38%
COc1cccc(N2CCN(C(=O)c3cnc4c(-c5ccccc5)c(C)nn4c3C)CC2)c1 -10.2%
Cc1ccccc1NC(=O)NCCc1c[nH]c2ccccc12 -20.5%
COc1cccc2cc(C(=O)N3CCN(c4cc(C)ccc4C)CC3)c(=O)oc12 -9.67%
Cc1nc(SCC(=O)N2CCN(c3ccccc3)CC2)[nH]c(=O)c1C -13.3%
CCc1ccccc1NC(=O)CN(C)S(=O)(=O)c1cccc2nsnc12 -24.7%
COc1ccc(-c2ccc(NS(=O)(=O)c3ccc(NC(C)=O)cc3)cc2)nn1 6.03%
COc1ccc(OC)c(NC(=O)c2c(NCc3cccs3)sc3c2CCCCC3)c1 -20.5%
CCOc1cc(CNC(=O)c2cc(-c3ccccc3)n[nH]2)cc(OCC)c1OCC -9.67%
COc1ccc(N2CCN(C(=O)c3cc4c(=O)n(Cc5cccnc5)ccc4nc3C)CC2)cc1 -15.5%
COc1ccc(CCNC(=O)c2cnn(-c3ccc(F)cc3)c2C2CCN(C(=O)OC(C)(C)C)CC2)cc1OC -13.9%
COc1ccc(NC(=O)c2oc3ccc(S(=O)(=O)N4CCOCC4)cc3c2C)c(OC)c1 -1.07%
O=C(CN1C(=O)C2(SCC(=O)N2c2ccc(F)c(F)c2)c2ccccc21)NCCc1ccccc1 (stereo not drawn) -8.49%
CCN(CC)S(=O)(=O)c1ccc(NC(=O)Cn2ncc3c([nH]c4ccccc43)c2=O)cc1 -6.72%
CC(Oc1ccccc1)C(=O)Nc1ccc(C(=O)OCc2cc(=O)n3nc(C(C)C)sc3n2)cc1 (stereo not drawn) 2.65%
CCOc1ccc(/C=C/c2nc(C#N)c(N3CCN(CC)CC3)o2)cc1 -0.177%
Cc1cc(C)cc(OCC(=O)Nc2nc(-c3ccc(F)cc3)ns2)c1 6%
Cc1cc(F)ccc1NC(=O)c1csc2c1CCC(C)C2 (stereo not drawn) 53%
Cc1ccccc1NC(=O)CSc1c(C(C)C)cnc2c1c(=O)n(C)c(=O)n2C -9.72%
CCOc1ccccc1NC(=O)CSc1nc2ccccc2nc1N1CCOCC1 -13.2%
CCCCN(C)CCNC(=O)c1nn(-c2ccc(OC)c(Cl)c2)c(=O)c2c1c1ccccc1n2C 1.69%
Cc1nn(-c2ccccc2)c2sc(C(=O)Nc3ccc(Cl)cc3Cl)cc12 8.3%
COc1ccc(CNC(=O)Cn2c(=O)c3cccn3c3cccnc32)cc1 -8.84%
COc1ccc(C(=O)Nc2nnc(SCc3cc(=O)c4cc(C)ccc4[nH]3)s2)cc1OC 7.1%
Cc1cccn2c(=O)c(C(=O)N3CCN(c4ccccc4F)CC3)cnc12 12.8%
CCN(CC)c1ccc2cc(-c3nnc(Nc4ccc(C)cc4)s3)c(=O)oc2c1 -11%
COC(=O)c1ccc(NC(=O)c2c(NCc3cccc(F)c3)sc3c2CCCC3)cc1 -22.1%
Cc1cc2c(cc1S(=O)(=O)N(CCN(C)C)Cc1ccccc1)OCC(=O)N2 5.49%
COc1ccccc1C(c1c(O)cc(C)n(Cc2ccco2)c1=O)N1CCCCC1 (stereo not drawn) -9.73%
CCC(Oc1ccccc1F)C(=O)Nc1cc(-c2ccccc2)no1 (stereo not drawn) -8.89%
COc1ccc(S(=O)(=O)N(CC(=O)NCCSc2ccc(C)cc2)c2ccc(C)cc2)cc1 -19.4%
CCOc1ccccc1NC(=O)CSc1c2c(nc3ccc(Cl)cc13)CCCC2 -5.62%
CCOc1ccccc1NC(=O)c1nc(S(=O)(=O)Cc2cccc(C)c2)ncc1Cl 5.66%
COc1ccc(-c2noc(CNC(=O)c3cc(OC)c(OC)c(OC)c3)n2)cc1 -5.04%
CC1CCc2onc(C(=O)Nc3ccc(Cl)cc3)c2C1 (stereo not drawn) 78.7%
COc1cccc(-c2nc(-c3ccc(Br)o3)no2)c1 64.6%
Cc1[nH]c2ccc(C(=O)NCCCN3CCCCC3)cc2c1C -7.8%
CC(=O)N1CCC(N(Cc2ccc(C)o2)C(=O)Nc2ccccc2F)CC1 3.11%
Cc1nc2c(c(C)c1CCC(=O)NCc1ccc(F)cc1)c(=O)n(C)c(=O)n2C 6.41%
COc1ccc(NCc2cc3cc4c(cc3n(CC(=O)Nc3ccc(C)cc3C)c2=O)OCO4)cc1 -20.6%
CCOc1c(Br)cc(C2C=C(C(=O)O)Nc3ncnn32)cc1OC (stereo not drawn) -8.52%
CC(=O)N1c2ccccc2C(=O)C1N1CCN(c2ccc(Cl)cc2)CC1 (stereo not drawn) -28.2%
O=C(NCc1ccccc1)c1cc(Sc2cccc(Cl)c2)nc2ccccc12 -17.2%
CCOC(=O)c1cc(OC(=O)c2ccccc2F)n(-c2ccccc2)n1 -1.32%
Nc1nc2c(ncn2COCCO)c(=O)[nH]1
Cc1ccc(-c2nc(S(=O)(=O)c3ccc(F)cc3)c(N3CCN(c4ccccc4)CC3)o2)cc1 -14.4%
